# Out of some 310,000 compounds screened, about 18,000 (5.8%) were called active. The inconclusive results got no clear call from the source; some entries with a clear call stand among them for comparison. The call rests on the fitted dose curve; in most records, active means well fitted inhibition curve with a large enough effect; inconclusive means small, poorly fitted or top-dose-only effect, or another doubt; inactive means no such curve, though single readings can be large or run the other way. Potencies of inconclusive entries are left out as doubtful fits.
# Experiment: Primary qHTS for delayed death inhibitors of the malarial parasite plastid, 48 hour incubation
# Details: P. falciparum luciferase growth in erythrocytes; series mostly up to 28.7 µM
# Procedure, shortened: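 Compounds are pin-transferred into medium, infected erythrocytes (2% hematocrit, 0.1% parasitemia final) are added, and plates sit one parasite generation at 37 C in 5% CO2. Detection reagent is then added and luminescence measured.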
# Potency means the concentration at half of the fitted maximal effect; tags describe the fitted curve by direction and shape.
row,SMILES,Potency
1,CCCn1c(=N)n(CC(O)COc2ccc(C)cc2)c2ccccc21 (stereo not drawn),active: 2.08 µM
2,O=C1CSC(c2ccccc2)N1CC(O)c1ccc([N+](=O)[O-])cc1 (stereo not drawn),inactive
3,CN(Cc1ccccc1)S(=O)(=O)c1ccc(Cl)c(C(=O)NCc2cccnc2)c1,"inconclusive [inhibitor, partial curve, poor fit]"
4,CC(Oc1ccc(F)cc1)C(=O)N(Cc1ccccc1)c1c(N)n(Cc2ccccc2)c(=O)[nH]c1=O (stereo not drawn),"inconclusive [inhibitor, partial curve, poor fit]"
5,S=C1NCN(Cc2ccccc2)CN1C1CCCCC1,"inconclusive [inhibitor, single point]"
6,O=C(CSc1cccc2cccnc12)N/N=C/c1cccnc1,"inconclusive [inhibitor, partial curve, poor fit]"
7,CC(C)(C)NC(=O)CSc1nnc(C2CC2)n1-c1ccccc1,inactive
8,O=C(NCCc1c[nH]c2ccccc12)OCCCCOC(=O)NCCc1c[nH]c2ccccc12,active: 10.4 µM
9,COc1ccc(/C=C(\NC(=O)c2ccc(OC)cc2)C(=O)Nc2ccccc2C(=O)O)cc1,inactive
10,C=CCn1c(COc2ccc(CC)cc2)nnc1SC/C(O)=C(\C#N)c1nc2ccccc2[nH]1,"inconclusive [inhibitor, single point]"
11,N=c1c(C(=O)NC2CCCCC2)cc2c(=O)n3ccccc3nc2n1Cc1cccnc1,"inconclusive [inhibitor, single point]"
12,COc1ccc(NC(=O)CSc2nnc(Cc3cccn3C)n2CCc2ccccc2)cc1OC,"inconclusive [inhibitor, partial curve]"
13,COC(=O)c1cn(NC(=O)c2cnccn2)c(=O)c2ccccc12,active: 9.28 µM
14,CCOC(=O)c1ccc(S(=O)(=O)N2CCN(CC(=O)NC(=O)NC3CCCCC3)CC2)cc1,"inconclusive [inhibitor, partial curve, poor fit]"
15,CC(=O)c1cc2c(cc1N/C(=N/S(=O)(=O)c1ccccc1)c1ccc(Cl)cc1)OCO2,"inconclusive [inhibitor, single point]"
16,O=C(Nc1cccc(-c2nc3ncccc3o2)c1)c1cc2ccccc2o1,"inconclusive [inhibitor, partial curve]"
17,Cc1ccccc1OCCC(=O)OCC(=O)N1c2ccccc2NC(=O)C1(C)C,"inconclusive [inhibitor, single point]"
18,O=c1cc(-c2ccccc2)nc2nc(-c3ccco3)[nH]n12,"inconclusive [inhibitor, partial curve, poor fit]"
19,CC(C)(C)OC(=O)N1CCC(C(=O)N2CCC[C@H]2C(=O)O)CC1,inactive
20,COc1ccc(CN2CCCC(C(=O)c3ccc(SC)cc3)C2)cc1Cn1cccn1 (stereo not drawn),"inconclusive [inhibitor, partial curve, poor fit]"
21,CCc1nc(C)cc2c1sc1ccccc12,inactive

row,SMILES,Potency
1,CCC(=O)Nc1cccc(C2=NN(c3ccccc3)C(c3ccc(OC)cc3)C2)c1 (stereo not drawn),"inconclusive [inhibitor, single point]"
2,COC(=O)C1=C(c2ccc3ccccc3c2)C[C@@H]2CC[C@H]1N2C(=O)NC1Cc2ccccc2C1,"inconclusive [inhibitor, single point]"
3,CC1=N/C(=C\c2ccc([N+](=O)[O-])cc2)C(=O)N1c1ccc(Br)c(C)c1,"inconclusive [inhibitor, partial curve, poor fit]"
4,O=C(Cc1csc(Nc2nc(=S)[nH]c3ccccc23)n1)N1CCN(c2cccc(Cl)c2)CC1,"inconclusive [inhibitor, partial curve, poor fit]"
5,Cc1ccccc1Nc1nc(N)nc(CSc2nnc3sc4ccccc4n23)n1,"inconclusive [inhibitor, partial curve]"
6,Cn1c(=O)cc(OCCCC(=O)N2CCC3(CC2)OCCO3)c2ccccc21,"inconclusive [inhibitor, single point]"
7,COc1ccc(N(CC(=O)NCCSCc2ccccc2C)S(=O)(=O)c2ccccc2)cc1,"inconclusive [inhibitor, single point]"
8,CCOc1ccc(C(=O)N[C@H](C(=O)Nc2ccc(OC)c(S(=O)(=O)N3CCOCC3)c2)C(C)C)cc1,"inconclusive [inhibitor, single point]"
9,NC(=O)C1CCN(C(=O)CCC(=O)N2CCOc3ccc(Cl)cc32)CC1,inactive
10,CCCCc1ccc(NC(=O)COCC)cc1,"inconclusive [inhibitor, single point]"
11,CCN1CCCC1CNC(=O)c1cc2cc(F)ccc2[nH]1 (stereo not drawn),"inconclusive [inhibitor, single point]"
12,Cc1cc(C)c2oc(=O)cc(CN3CCCCC3)c2c1,"inconclusive [inhibitor, partial curve, poor fit]"
13,CCOC(=O)c1ccc(N/C(=N\S(=O)(=O)c2ccccc2C)c2ccccc2)cc1,"inconclusive [inhibitor, partial curve, poor fit]"
14,O=C(O)c1ccccc1-c1ccccc1C(=O)Nc1ccc(-c2nc3cc(Cl)ccc3o2)cc1,"inconclusive [inhibitor, single point]"
15,NC(=O)C1CCN(c2nc(-c3ccc(F)cc3)cs2)CC1,"inconclusive [activator, partial curve, poor fit]"
16,CCn1nc(NC(=O)c2ccccc2)c2cc3cccc(C)c3nc21,"inconclusive [inhibitor, single point]"
17,CN(Cc1ccccc1)C(=O)c1ccc(NC(=O)Cc2cccc(NC(=O)C3CCN(C(=O)C4CCCCC4)CC3)c2)cc1,"inconclusive [inhibitor, partial curve]"
18,Cc1cc(C(=O)CN2C(=O)NC3(CCCCC3)C2=O)c(C)n1-c1ccc2c(c1)OCO2,"inconclusive [inhibitor, single point]"
19,NNC(=S)Nc1c(Br)cc(F)cc1Br,"inconclusive [inhibitor, single point]"
20,Cc1ccc(S[C@@H](CCN2CC[C@H](C)CCC2=O)c2ccccc2)cc1,"inconclusive [inhibitor, partial curve]"
21,COc1ccc(-c2nnc(SCc3c(C)noc3C)n2N)cc1OC,"inconclusive [inhibitor, partial curve, poor fit]"

row,SMILES,Potency
1,COc1ccc(CNC(=O)[C@H](C)NC(=O)C2CCN(C(=O)[C@H](CCSC)NC(=O)OC(C)(C)C)CC2)cc1,inactive
2,CCn1c(SCC(=O)c2ccc(O)c(O)c2)nnc1-c1ccc(C)cc1,"inconclusive [inhibitor, single point]"
3,CC(C)(C)NC(=O)Nc1nnc(SCC(=O)NC2CCCCC2)s1,"inconclusive [inhibitor, single point]"
4,O=C1CS/C(=N\c2ccccn2)N1C1CCCCC1,"inconclusive [inhibitor, single point]"
5,CCc1ccc(/C(C)=N/NC(=O)c2ccccn2)cc1,inactive
6,O[C@@H](CNC[C@H](O)c1ccccc1)c1ccccc1,active: 9.28 µM
7,CCN(c1cc(C)cc(C)c1)S(=O)(=O)c1nnc(NC(=O)C(C)(C)C)s1,"inconclusive [inhibitor, single point]"
8,COc1ccc(CSc2nnc(Cc3sc(-c4ccccc4)nc3-c3ccccc3)o2)cc1,active: 11.7 µM
9,NS(=O)(=O)c1ccc(CCNC(=O)c2cccnc2)cc1,"inconclusive [inhibitor, single point]"
10,CCn1cc(C(=O)O)c(=O)c2cc(F)c(N3CCN(C(=S)NC(=O)c4cc(OC)cc(OC)c4)CC3)cc21,"inconclusive [inhibitor, partial curve]"
11,COCCCNC(=O)c1c(N)n(-c2ccc3c(c2)OCO3)c2nc3ccccc3nc12,active: 6.57 µM
12,CC(C)(C)c1nc(SCC(=O)c2ccccc2)c2ccccc2n1,"inconclusive [inhibitor, partial curve, poor fit]"
13,COc1cc(Cl)c(C)cc1NC(=O)CN(C)Cc1cccc(OC)c1OC,"inconclusive [inhibitor, single point]"
14,O=C(CSc1n[nH]c(=O)n1Cc1ccco1)Nc1ccccc1Cl,"inconclusive [inhibitor, full curve]"
15,CC(C)(O)c1cc(=O)sc2nc3ccccc3n12,inactive
16,Cc1cc(C)n2nc(-c3ccco3)nc2n1,inactive
17,C#Cc1ccc([C@H]2C=C(C(=O)N3CCOCC3)O[C@@H](OCc3ccc(CO)cc3)C2)cc1,"inconclusive [inhibitor, partial curve, poor fit]"
18,c1ccc(CCC2CCCCN2Cc2cn[nH]c2-c2cc3ccccc3o2)nc1 (stereo not drawn),"inconclusive [inhibitor, partial curve]"
19,CC(=O)N(CCC(Cc1ccccc1)c1ccc2c(c1)OCO2)Cc1ccccc1F (stereo not drawn),"inconclusive [inhibitor, partial curve]"
20,COc1cccc(CN2CCCC(C(=O)c3ccccc3SC)C2)c1O (stereo not drawn),"inconclusive [inhibitor, full curve]"
21,COc1ccc(OC)c(CCNC(=O)c2ccccc2NC(=O)C2=C(C)OCCS2)c1,"inconclusive [inhibitor, partial curve]"
